Our source for the binding values is publication PMC9800311.

Chains of the proteins cited; added tags and fusions are not shown. Lines headed by an entry give the natural chain unless they say otherwise; changes in a name come on top.
UniProt P60881: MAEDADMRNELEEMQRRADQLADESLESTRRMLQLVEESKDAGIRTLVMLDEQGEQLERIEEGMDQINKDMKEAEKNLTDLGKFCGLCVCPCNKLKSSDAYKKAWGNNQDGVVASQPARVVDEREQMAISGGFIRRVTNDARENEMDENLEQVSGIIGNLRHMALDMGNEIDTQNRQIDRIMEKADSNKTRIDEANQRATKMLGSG
UniProt Q80TN5: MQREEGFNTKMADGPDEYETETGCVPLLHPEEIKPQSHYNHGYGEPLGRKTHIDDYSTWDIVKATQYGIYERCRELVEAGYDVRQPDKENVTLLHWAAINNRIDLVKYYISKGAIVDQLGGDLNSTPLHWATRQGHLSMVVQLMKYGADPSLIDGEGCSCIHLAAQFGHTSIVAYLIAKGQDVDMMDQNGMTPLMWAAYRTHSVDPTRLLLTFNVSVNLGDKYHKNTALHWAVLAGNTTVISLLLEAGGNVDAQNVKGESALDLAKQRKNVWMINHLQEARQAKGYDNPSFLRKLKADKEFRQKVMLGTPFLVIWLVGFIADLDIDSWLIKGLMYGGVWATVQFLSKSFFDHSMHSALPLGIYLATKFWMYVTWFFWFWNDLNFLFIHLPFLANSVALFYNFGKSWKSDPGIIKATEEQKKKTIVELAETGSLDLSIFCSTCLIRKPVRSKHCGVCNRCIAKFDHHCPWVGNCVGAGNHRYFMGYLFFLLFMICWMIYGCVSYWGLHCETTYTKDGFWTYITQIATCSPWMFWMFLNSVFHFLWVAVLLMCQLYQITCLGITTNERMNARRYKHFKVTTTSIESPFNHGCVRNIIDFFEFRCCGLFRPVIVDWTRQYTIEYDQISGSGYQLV

Where two headings read alike, the source gives them in different places. Results are given in words; binding and its absence hold for the method and conditions named. Binding seen in cells or lysates may run through a third protein. Some entries that bind do so weakly or less than the wild type. For part of these data: Where a sequence is shown, tags or fusion partners need not be part of it.

What all share (test): co-IP; EGFP-tagged substrate protein and HA-tagged zDHHC enzyme cotransfected in HEK293T; lysate (PBS, 0.5% Triton X-100, protease inhibitors) incubated with GFP-Trap beads at least 1 h at 4 °C, washed in PBS; coprecipitated HA-zDHHC detected by immunoblot
In assay [1] the target is T1, EGFP-tagged SPRED3 WT (UniProt Q2MJR0).
T1 sequence: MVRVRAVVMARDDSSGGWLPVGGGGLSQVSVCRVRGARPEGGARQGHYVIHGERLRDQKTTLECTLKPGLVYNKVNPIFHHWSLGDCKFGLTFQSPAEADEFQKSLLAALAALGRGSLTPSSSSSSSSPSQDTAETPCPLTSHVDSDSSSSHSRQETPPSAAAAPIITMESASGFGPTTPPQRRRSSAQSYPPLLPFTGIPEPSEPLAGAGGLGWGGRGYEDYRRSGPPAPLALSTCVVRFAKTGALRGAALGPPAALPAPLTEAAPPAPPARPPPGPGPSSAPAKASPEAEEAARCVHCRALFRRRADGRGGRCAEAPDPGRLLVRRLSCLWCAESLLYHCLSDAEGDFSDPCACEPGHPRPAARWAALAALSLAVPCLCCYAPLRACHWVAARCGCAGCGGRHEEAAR

Assay [2] addresses T2, EGFP-tagged Spry2 WT (Sprouty-2) (mouse) (UniProt Q9QXV8).
T2 sequence: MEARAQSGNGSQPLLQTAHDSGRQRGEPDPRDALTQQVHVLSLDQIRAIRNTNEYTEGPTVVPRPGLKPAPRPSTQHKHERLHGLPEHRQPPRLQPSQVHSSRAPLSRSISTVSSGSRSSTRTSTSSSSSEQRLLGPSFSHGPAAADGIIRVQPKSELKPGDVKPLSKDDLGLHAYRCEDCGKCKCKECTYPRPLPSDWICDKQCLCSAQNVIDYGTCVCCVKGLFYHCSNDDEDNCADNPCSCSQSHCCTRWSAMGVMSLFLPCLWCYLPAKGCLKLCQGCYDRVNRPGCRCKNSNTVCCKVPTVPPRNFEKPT

The target in assay [3] is T3, EGFP-tagged SPRED3 296 to 410 (isolated SPR domain) (UniProt Q2MJR0).
T3 sequence: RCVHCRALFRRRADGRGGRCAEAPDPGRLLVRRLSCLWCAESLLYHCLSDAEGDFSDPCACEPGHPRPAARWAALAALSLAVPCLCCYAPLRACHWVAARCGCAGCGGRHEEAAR

Assay [4] deals with EGFP-tagged SNAP25 (synaptosomal-associated protein of 25 kDa) (UniProt P60881).
The target of assay [5] is T1, EGFP-tagged SPRED3 WT. The source holds these as a separate data set.

Consider “HA-tagged zDHHC17 ΔC (aa 11-569; C-terminal end removed) (from UniProt Q80TN5 11-569) (domain or fragment)”, for which the binding entry with EGFP-tagged SPRED3 WT [1] is “binds”.
In the case of “HA-tagged zDHHC17 WT (aa 11-632) (from UniProt Q80TN5 11-632) (enzyme)”, the binding result (in assay [2]; with EGFP-tagged SPRED3 WT [1]; in assay [3]) was “binds” throughout.
“HA-tagged zDHHC17 ΔAnk (aa 287-632; ankyrin repeat domain removed) (from UniProt Q80TN5 287-632) (domain or fragment)”: the binding entry is listed as “binds weakly” in assay [2], “binds” with EGFP-tagged SPRED3 WT [1], “binds” in assay [3] and “no binding” in assay [4].

B1: HA-tagged zDHHC7 WT (enzyme, UniProt Q91WU6 1-308)
chain: MQPSGHRLRDIEHHPLLTDNDNYDSASSSSSETDMADRVWFIRDGCGMVCAVMTWLLVVYADFVVTFVMLLPSKDFWYSVVNGVLFNCLAVLALSSHLRTMLTDPGAVPKGNATKEYMESLQLKPGEVIYKCPKCCCIKPERAHHCSICKRCIRKMDHHCPWVNNCVGEKNQRFFVLFTMYIALSSVHALILCGLQFISCVRGQWTECSDFSPPITVILLVFLCLEGLLFFTFTAVMFGTQIHSICNDETEIERLKSEKPTWERRLRWEGMKSVFGGPPSLLWMNPFVGFRLRRLQMRTRKGGPEFSV
Take B1: in the assay with EGFP-tagged SPRED3 WT [5], the binding result is on record as “binds weakly”.
